To fix the notation:
T1: UNK ZnF1-3 (human, UniProt Q9C0B0 31-174)
T1 sequence: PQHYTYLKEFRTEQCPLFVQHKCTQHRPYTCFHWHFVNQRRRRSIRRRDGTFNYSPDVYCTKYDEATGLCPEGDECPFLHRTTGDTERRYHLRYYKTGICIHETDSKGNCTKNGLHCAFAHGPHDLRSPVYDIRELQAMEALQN

B1: chr4:17845017:17845018:+_ENSG00000109805_ENST00000514176|hu_mus|hu_hu_hu_mus_False|38_68 (ssRNA)
RNA: GGGAGUUCUACAGUCCGACGAUCGCUCUCUUAACUUGUAUCUUCAUUAAGGAACUCUGCAAGGUUAGUUUACUUUUUCUGUAGCGCAGCUGUUUUGCUCGUCUUGGGUAAUCUCAUCUUCAUUUCUGAUGGUGGUUCAUGAUCCAACAGAGGAUUGAGCAUCA
B2: chr11:79222206:79222207:+_ENSMUSG00000020716_ENSMUST00000071325|mus_mus|motif|central (ssRNA)
RNA: GGGAGUUCUACAGUCCGACGAUCCUUUGUAAAUUCAUCCGGAUAAUUUUCUACCCAGUUCCAAAAAGCCUUUUCGGGGCGGUUUAUAACUGCCAACUGUGCAACCUUCUUCAGGGCUUUAAAUUUAAAUGCUGUUUCCUUCAGCAACAGAGGAUUGAGCAUCA
B3: chr15:31432613:31432614:-_ENSMUSG00000039100_ENSMUST00000090227|mus_mus|motif|central (ssRNA)
RNA: GGGAGUUCUACAGUCCGACGAUCAUAAAUUGGUGUGAAAGCAAAUCUGUGCUUGCAUAAUUCACAGUAUUCUUUCCGACGGUGUUUCAACCACUGAACUAAGCAUUCUUGAUGAAUAAAUUUAAUACUGCCAGUACAUACACACAACAGAGGAUUGAGCAUCA
B4: chr17:30678820:30678821:+_ENSG00000010244_ENST00000394673|hu_hu|motif|central (ssRNA)
RNA: GGGAGUUCUACAGUCCGACGAUCAUUUAAAAUGCUUUGCUUUUUGGUGCUGAAUAAGGAUCUUCUCAUCAUCAAAAUCUCGGUUACAAUACCAGCACCACGGCUUCAGCUGCUUCUUCUUCUUGCGACCCAUAACUGUGUUCUCAACAGAGGAUUGAGCAUCA
B5: chr4:25749455:25749456:-_ENSG00000091490_ENST00000264868|hu_hu|hu_hu_hu_mus_False|18_98 (ssRNA)
RNA: GGGAGUUCUACAGUCCGACGAUCGCACUAUGACCUCCCCUAGAAAACACAGGGGGAAAAAAUGUAAACCAAUGUACAAUGUUAUCGCCUUCCCUGUGUGUGGAGUGUUUGUCUCAAUAUUUCAAGGAGCUGCUGGAUUUGGGACAACAGAGGAUUGAGCAUCA
B6: chr2:47387770:47387771:-_ENSG00000143933_ENST00000272298|hu_mus|hu_hu_hu_mus_True|18_108 (ssRNA)
RNA: GGGAGUUCUACAGUCCGACGAUCAAGGUUUUAGGACAAUGACAGUAAGAUAAGGGAAGAAAACAUGGAGGAAUGAAGUCCUAAUUACUAUACAUGCAUAUUUUUUGACAGUAGGGGAGAAACCUUUUUUACAGAUAAGUUACACAACAGAGGAUUGAGCAUCA
B7: chr1:180971808:180971809:-_ENSG00000135823_ENST00000258301|hu_hu|motif|central (ssRNA)
RNA: GGGAGUUCUACAGUCCGACGAUCUUUUCUUAUACUCAAUUCAGUUGCAUCAAGGUUAAAUUUUCUAGGAUUUGCUUCAACGGUGCUGAUGGUUUCAUCAAGGUCCUCUAGAUCCCACUCUAUGCUCCGGAGGUUAUUUCUCAGCAACAGAGGAUUGAGCAUCA
B8: chr7:141438946:141438947:+_ENSG00000106028_ENST00000265304|hu_mus|hu_hu_hu_mus_True|38_88 (ssRNA)
RNA: GGGAGUUCUACAGUCCGACGAUCGACGAAAUACCUGUAACACAGGUGAAACAUGGCUGGCUUCUGUUUUUCUUACAACCUAAUCUUUAGGCUUUUCCUGACGAUCUGAAAGAAAAGAGAAAAAUGAUAAAUCAAGAAACUACACAACAGAGGAUUGAGCAUCA
B9: chr1:163112212:163112213:-_ENSG00000143248_ENST00000313961|hu_hu|hu_hu_hu_mus_False|38_58 (ssRNA)
RNA: GGGAGUUCUACAGUCCGACGAUCUUUUAUUAUCAGUAAGAGUGAGUUACAUACUAGGCAAAGUAUUGGAUACAAUAUUCUAAAGAUAAACACUAUUUUUCUUGAAUUUAAAACUUUAUGAGCGAAGUGCUGGCACAGGACUUACAACAGAGGAUUGAGCAUCA
B10: chr1:82727704:82727705:+_ENSMUSG00000026150_ENSMUST00000078332|mus_mus|FALSE|FALSE (ssRNA)
RNA: GGGAGUUCUACAGUCCGACGAUCCAGAGGUUUAAAGGGAGUGGACUGGAUAAGGUCAAGAUCUGCUGGUCUUGAAAAUGAAAUGUCUUCAUUAUUUCCUGUAACCACGAUCCUCUCUGGGACUUGCAUUAUCACACUGGCAUUCAACAGAGGAUUGAGCAUCA
B11: chr14:66974463:66974464:+_ENSMUSG00000022044_ENSMUST00000074523|mus_hu|mus_mus_mus_hu_False|78_88 (ssRNA)
RNA: GGGAGUUCUACAGUCCGACGAUCUUGUAGGACGACUUAUUCAGGGGAUCAGACAAGAAGCAAGAGCAGAACAAGGACACCAGCGGGAGCUCCUUCAUCUUCUCUUUGUAGGCAGCAAGGGUCAUGUUUCUGGGAUCUGGUGGCCAACAGAGGAUUGAGCAUCA
B12: 70346265_70346869_2708_CDS_ENSG00000184634_ENST00000374080|human|control|control (ssRNA)
RNA: GGGAGUUCUACAGUCCGACGAUCCGAGGAUUUGAGAAGCAGCUCAGCCUCAACUACACUCAGUUCAUUCAGCAGCUGAAUGGCAAAGUCGAUGAGGCCACUGAUGCUGAGUGAAUAUUCCAUGAGGUCGAAGAUGAACUGCACCAACAGAGGAUUGAGCAUCA
B13: chr19:53703180:53703181:+_ENSMUSG00000024974_ENSMUST00000025930|mus_mus|FALSE|FALSE (ssRNA)
RNA: GGGAGUUCUACAGUCCGACGAUCAUUUUGAACAUGCUGGUUUAUACCUUUUCGCCGAAAAUGUUCUAGCACUUUGUUAAUGCUAUCUAUUCCAUUUAAAAUGGCCUUUCCUGUUGCCGCUCUAAGAAGUUGCUGCUUCUUCUCCAACAGAGGAUUGAGCAUCA
B14: chr18:34476965:34476966:+_ENSMUSG00000005871_ENSMUST00000115781|mus_hu|motif|central (ssRNA)
RNA: GGGAGUUCUACAGUCCGACGAUCCAAUUUUCUUCUUAAGGUUGGGCUUGGAGCUUCUUUGAUGAAAGUUGACUGGCGUACGGAUACAGGUCUUUCUGAUCUAUCAGAUUCACUUCCACUUGAUUUAGUUGAAGACAUUCUAGACAACAGAGGAUUGAGCAUCA
B15: chr16:42174308:42174309:+_ENSMUSG00000061080_ENSMUST00000099761|mus_hu|FALSE|FALSE (ssRNA)
RNA: GGGAGUUCUACAGUCCGACGAUCUAUUCUGUGUGACGCAUUUUUGUGUGUUUUUUAAAUUAUUUUUAAAUUUUUAUUCUAUUAACAUUUGCUGAGAAGGCAGAGCAGAGAUGCUGCCAGCAGCCACAGUGGUACGGCCAGACUCAACAGAGGAUUGAGCAUCA
B16: chr14:21542388:21542389:+_ENSMUSG00000021819_ENSMUST00000022358|mus_hu|FALSE|FALSE (ssRNA)
RNA: GGGAGUUCUACAGUCCGACGAUCGAAGGCGCUGCGGGCACUCCGGAUCGCAUUCACAAAGUCGUCGUAGUCCGCAGGAGUCAGGUGAAUCAAGCGGUGGUGGAUGUACUGCAUGUAUGCCUGCUGGCAGCGCUGCACCAGUUGCAACAGAGGAUUGAGCAUCA
B17: chr7:135049633:135049634:+_ENSMUSG00000030802_ENSMUST00000151451|mus_hu|FALSE|FALSE (ssRNA)
RNA: GGGAGUUCUACAGUCCGACGAUCGUCAGGCUUGUCCUCAUGCAGCGCCAGGUGAUGCGUGGCCAACAUGCGGAUUCCAAGCCUCGAAGUCAGCGUCUUGUCCAAGAAGUAGCGGACGAGCUUUUCAUCCUCUAUGUGCUUCCGCAACAGAGGAUUGAGCAUCA
B18: chr16:20683585:20683586:+_ENSMUSG00000045983_ENSMUST00000044783|mus_mus|FALSE|FALSE (ssRNA)
RNA: GGGAGUUCUACAGUCCGACGAUCUAUUGCUUCUGUUAACAUCUUCAACUUGAAUAACUCUCCAAUAAACUUGAUAUUCCCUAAAGAGCGCCGCCUAGCUAUGUCCCGGGCUUCUUCUAGCUCUUCUUUCAGGCGUCCCCGUUCCAACAGAGGAUUGAGCAUCA
B19: 191362397_191364812_2319_CDS_ENSG00000151690_ENST00000281416|human|control|control (ssRNA)
RNA: GGGAGUUCUACAGUCCGACGAUCGUCAGAGUGAGUCUCACAUGGGACAGGCUGGGCUCUACCAGCAGGAGAAUUUUCCCUAUUCUCAUUGGUCCCCUGUAAAGGCUGUAUCUCAGAAGCACGGUUGUCUCUUGUGAGUUGCAUCAACAGAGGAUUGAGCAUCA
B20: chr5:24101842:24101843:-_ENSMUSG00000028949_ENSMUST00000030791|mus_hu|FALSE|FALSE (ssRNA)
RNA: GGGAGUUCUACAGUCCGACGAUCCUCCUGGAUGUCCACCCGCUUCCGCAUGAUGGUUUGAUCCAGUUUCCUCUCAAAUGCCAAGAGGUCCAUGUAAGCCUGGGACUCGGGGACCAGCUCCCGAAUCCUUUGAGGGAGGAUUUUCAACAGAGGAUUGAGCAUCA
B21: chr14:21833301:21833302:-_ENSG00000092201_ENST00000216297|hu_mus|motif|central (ssRNA)
RNA: GGGAGUUCUACAGUCCGACGAUCAUUGAUGCUAAAAACCAUCCCUUUCUUUAGCUUGUACUGAUUUUUACUAUUGAUUACGGGAGAGCCUUCACGGAAUUCAAUUCCCAUCCCAAAUCCUAGAUUCUUUGUAAUUUUGUUCAGCAACAGAGGAUUGAGCAUCA
B22: 84350868_84366539_748_CDS_ENSG00000065609_ENST00000520302|human|control|control (ssRNA)
RNA: GGGAGUUCUACAGUCCGACGAUCGUAAAUUUCUAGAGCAUCUUUACAUUGUCCUUUCUUCAUUUCAAAAAACUUUUCGAGUAAGUUAAUAACACCAUCAUUGUAGCAAGCAAAAAGUUUGAUAAGAUCUUUGAAAAGAAGCAUCAACAGAGGAUUGAGCAUCA

Some of the results follow.

The experiment has as its target T1, UNK ZnF1-3. Briefly: nsRBNS (natural sequence RNA bind-n-seq); RBNS binding buffer (assumed for nsRBNS): 25 mM Tris pH 7.5, 150 mM KCl, 3 mM MgCl2, 0.01% Triton X-100, 500 ug/ml BSA, 20 U/ml SUPERase-In, 4 C; UNK is unkempt and MSI1 is Musashi-1; names of the RNAs are library labels; protein concentration not given here; high values mean tight binding.
B1: the binding signal turned out to be 0.316 enrichment R.
The molecule B2 gave a binding signal of 0.828 enrichment R.
As to B3, the binding signal came to 1.25 enrichment R.
As for B4, the binding signal was 0.535 enrichment R.
The molecule B5 displayed a binding signal of 1.43 enrichment R.
B6 showed a binding signal of 1.67 enrichment R.
Regarding B7, the binding signal stood at 0.542 enrichment R.
As to B8, the binding signal was found to be 0.983 enrichment R.
Turning to B9, the binding signal was found to be 1.23 enrichment R.
On to B10, for which the binding signal is 0.941 enrichment R.
B11 had a binding signal of 1.88 enrichment R.
In turn, B12 came in with a binding signal of 0.29 enrichment R.
Regarding B13, the binding signal is 0.266 enrichment R.
B14 registered a binding signal of 0.499 enrichment R.
As to B15, the binding signal was found to be 2.34 enrichment R.
The molecule B16 showed a binding signal of 1.13 enrichment R.
With B17 the figure was 0.273 enrichment R; with B18, 0.573 enrichment R.
B19 showed a binding signal of 0.746 enrichment R.
The molecule B20 had a binding signal of 0.648 enrichment R.
With B21 the figure was 0.763 enrichment R; with B22, 0.923 enrichment R.

The values above are taken from paper PMC12136788.
